# Where a name gives a salt, the structure may show the parent alone. The whole screen tested about 1,300 compounds, of which about 40 (3%) showed activity. This is one part of the list.
# System: Plasmodium falciparum NF54/iGP1_RE9H ulg8 stage V gametocytes
# Assay: gametocyte viability (luciferase signal relative to DMSO control) (% of DMSO control); higher = less gametocytocidal activity, active = 50 or less
# Conditions: exposure time: 72 h
# Summary of the method: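 Compounds from 10 mM DMSO stocks were spotted at nanolitre scale into 96-well plates, and day-12 stage V NF54/iGP1_RE9Hulg8 gametocytes (~2.5% gametocytemia, 3% hematocrit; medium with 0.5% Albumax II) were added to reach 10 µM or 1 µM, one well per concentration. The plates were kept at 37 °C for 72 h. Luminescence was then read on an IVIS Lumina II after mixing 90 µl of culture with 10 µl D-luciferin (30 mg/ml). Viability values are relative to the plate's mean DMSO vehicle signal.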
SMILES,gametocyte viability (concentration: 1 µM),gametocyte viability (concentration: 10 µM)
"O=C1c2cccc(O)c2C(=O)c2c(O)cccc21 [1,8-Dihydroxyanthraquinone]",inactive: 82.8,inactive: 85.1
CC(C)NNC(=O)c1ccncc1 [Iproniazide phosphate],inactive: 78.8,inactive: 77.5
O=C(O)CCC(=O)c1ccc(-c2ccccc2)cc1 [Fenbufen],inactive: 91.8,inactive: 93.4
N[C@@H](Cc1ccc(O)c(O)c1)C(=O)O [Levodopa],inactive: 92.2,inactive: 92.6
CN1CCN2c3ccccc3Cc3ccccc3C2C1 (centres undefined) [Mianserine hydrochloride],inactive: 84.4,inactive: 82.9
C[C@H](CCC(=O)O)[C@H]1CC[C@H]2[C@@H]3C(=O)C[C@@H]4CC(=O)CC[C@]4(C)[C@H]3CC(=O)[C@]12C [Dehydrocholic acid],inactive: 95.4,inactive: 93.6
CCOC(=O)C1=C(C)NC(C)=C(C(=O)OC)C1c1cccc(Cl)c1Cl (centres undefined) [Felodipine],inactive: 82.3,inactive: 96.3
O=C1c2c(O)ccc(O)c2C(=O)c2c(NCCNCCO)ccc(NCCNCCO)c21 [Mitoxantrone dihydrochloride],inactive: 86.2,active: 12.9
O=C(NC(Cc1cc(=O)[nH]c2ccccc12)C(=O)O)c1ccc(Cl)cc1 (centres undefined) [Rebamipide],inactive: 78.2,inactive: 84.5
Nc1ncn(C2OC(CO)C(O)C2O)c(=O)n1 (centres undefined) [Azacytidine-5],inactive: 86.9,inactive: 81.9
C[N+](C)(C)CCOC(N)=O [Carbachol],inactive: 93.9,inactive: 91
CC(C)(C)NC[C@H](O)COc1cccc2c1CCCC2=O [(-) -Levobunolol hydrochloride],inactive: 93.6,inactive: 91.2
CCCNC(C)(C)COC(=O)c1ccccc1 [Meprylcaine hydrochloride],inactive: 84.1,inactive: 84.9
NC[C@@H]1O[C@H](O[C@H]2[C@@H](O)[C@H](O[C@@H]3[C@@H](O)[C@H](N)C[C@H](N)[C@H]3O[C@H]3O[C@H](CN)[C@@H](O)[C@H](O)[C@H]3N)O[C@@H]2CO)[C@H](N)[C@@H](O)[C@@H]1O [Neomycin sulfate],inactive: 81.7,inactive: 84.7
NC1CCN(c2c(F)cc3c(=O)c(C(=O)O)cn(C4CC4)c3c2Cl)C1 (centres undefined) [Clinafloxacin],inactive: 92.1,inactive: 90.8
CCC1(C)CC(=O)NC1=O (centres undefined) [Ethosuximide],inactive: 82.9,inactive: 81.6
C[N+](C)(CCOc1ccccc1)Cc1ccccc1.O=C([O-])c1cc2ccccc2cc1O [Bephenium hydroxynaphthoate],inactive: 87.3,inactive: 89.9
CC(NCCc1ccc(O)cc1)C(O)c1ccc(O)cc1 (centres undefined) [Ritodrine hydrochloride],inactive: 90,inactive: 91
CCc1nn(CCCN2CCN(c3cccc(Cl)c3)CC2)c(=O)n1CCOc1ccccc1 [Nefazodone HCl],inactive: 81.7,inactive: 71.4

SMILES,gametocyte viability (concentration: 1 µM),gametocyte viability (concentration: 10 µM)
CCC(C)(C)C(=O)O[C@H]1C[C@@H](C)C=C2C=C[C@H](C)[C@H](CC[C@@H]3C[C@@H](O)CC(=O)O3)[C@H]21 [Simvastatin],inactive: 80.4,inactive: 85.5
N=c1nc(N2CCCCC2)cc(N)n1O [Minoxidil],inactive: 102,inactive: 96
CC(=O)Oc1ccc(C(c2ccc(OC(C)=O)cc2)c2ccccn2)cc1 [Bisacodyl],inactive: 83.9,inactive: 83.5
CCCc1nn(C)c2c(=O)[nH]c(-c3cc(S(=O)(=O)N4CCN(C)CC4)ccc3OCC)nc12 [Sildenafil],inactive: 90.3,inactive: 70.6
O=C(O)c1ccccc1Nc1cccc(C(F)(F)F)c1 [Flufenamic acid],inactive: 86.8,inactive: 88.2
CC[N+](C)(CC)CCC[n+]1c(-c2ccccc2)c2cc(N)ccc2c2ccc(N)cc21 [Propidium iodide],inactive: 80,inactive: 84.1
Clc1ccc(C(c2ccccc2Cl)C(Cl)Cl)cc1 (centres undefined) [Mitotane],inactive: 85.4,inactive: 80.8
O=C1O[C@H]([C@@H](O)CO)C(O)=C1O [Ascorbic acid],inactive: 79.5,inactive: 84.9
Nc1ccc(C(=O)O)c(O)c1 [4-aminosalicylic acid],inactive: 95.8,inactive: 98.6
O=C1Nc2ccc(Cl)cc2[C@@](C#CC2CC2)(C(F)(F)F)O1 [Efavirenz],inactive: 85.8,inactive: 94.3
OCCN1CCN(CC/C=C2/c3ccccc3Sc3ccc(Cl)cc32)CC1 [Zuclopenthixol hydrochloride],inactive: 100,inactive: 95.8
Nc1nc(/C(=C/CC(=O)O)C(=O)N[C@@H]2C(=O)N3C(C(=O)O)=CCS[C@H]23)cs1 [Ceftibuten],inactive: 97.5,inactive: 94.8
Nc1ccc(/N=N/c2ccccc2)c(N)n1 [Phenazopyridine hydrochloride],inactive: 88.3,active: 48.1
CCc1cc(Cl)c(OC)c(C(=O)NC[C@@H]2CCCN2CC)c1O [S(-)Eticlopride hydrochloride],inactive: 81.3,inactive: 86.4
CN(C)CCOC(=O)C(c1ccccc1)C1(O)CCCC1 (centres undefined) [Cyclopentolate hydrochloride],inactive: 95.8,inactive: 90.3
CCC(=O)O[C@]1(C(=O)SCF)[C@H](C)C[C@H]2[C@@H]3C[C@H](F)C4=CC(=O)C=C[C@]4(C)[C@@]3(F)[C@@H](O)C[C@@]21C [Fluticasone propionate],inactive: 92,inactive: 96.4
O=C1[C@H]2CCCC[C@H]2C(=O)N1CCCCN1CCN(c2nsc3ccccc23)CC1 [Perospirone],inactive: 64.7,active: 39.7
Clc1cccc(Cl)c1NC1=NCCN1 [Clonidine hydrochloride],inactive: 84.6,inactive: 98.6

# Reference: the supplement of paper PMC12297408
